{"source": "the supplement of paper PMC8728848", "assay_in_all_cases": "glycan array binding signal (z-score within array); higher = stronger binding", "conditions_in_all_cases": "glycan notation: IUPAC condensed, linker removed", "key": {"[1]": {"molecular_target": "GlcNAc(a1-4)Gal(b1-4)GlcNAc(b1-3)Gal(b1-4)GlcNAc(b1-3)Gal(b1-4)GlcNAc", "outline": "(§1)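 Glycan array data were curated from 3228 arrays in the Consortium for Functional Glycomics database and kept only where the protein sequence was available. Glycan names were converted to IUPAC-condensed notation, and columns mapping to the same glycan were averaged. The binding signal is a within-array Z-score, averaged across arrays of the same protein sequence at different concentrations or buffers and across linkers. Negative Z-scores can be read as non-binding.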"}, "[2]": {"molecular_target": "GlcNAc(a1-4)Gal(b1-4)GlcNAc(b1-3)Gal(b1-4)[Fuc(a1-3)]GlcNAc(b1-3)Gal(b1-4)[Fuc(a1-3)]GlcNAc", "outline": "as §1"}, "[3]": {"molecular_target": "GlcNAc(a1-6)Gal(b1-4)GlcNAc", "outline": "as §1"}, "[4]": {"molecular_target": "GlcNAc(b1-2)Gal(b1-3)GalNAc", "outline": "as §1"}, "[5]": {"molecular_target": "GlcNAc(b1-2)Man(a1-3)[GlcNAc(b1-2)Man(a1-6)]Man(b1-4)GlcNAc(b1-4)GlcNAc", "outline": "as §1"}, "[6]": {"molecular_target": "GlcNAc(b1-2)Man(a1-3)[GlcNAc(b1-2)Man(a1-6)]Man(b1-4)GlcNAc(b1-4)[Fuc(a1-6)]GlcNAc", "outline": "as §1"}, "[7]": {"molecular_target": "GlcNAc(b1-2)Man(a1-3)[GlcNAc(b1-4)][GlcNAc(b1-2)Man(a1-6)]Man(b1-4)GlcNAc(b1-4)GlcNAc", "outline": "as §1"}, "[8]": {"molecular_target": "GlcNAc(b1-2)Man(a1-3)[GlcNAc(b1-4)][GlcNAc(b1-2)Man(a1-6)]Man(b1-4)GlcNAc(b1-4)[Fuc(a1-6)]GlcNAc", "outline": "as §1"}, "[9]": {"molecular_target": "GlcNAc(b1-2)[GlcNAc(b1-4)]Man(a1-3)[GlcNAc(b1-2)Man(a1-6)]Man(b1-4)GlcNAc(b1-4)GlcNAc", "outline": "as §1"}, "[10]": {"molecular_target": "GlcNAc(b1-2)[GlcNAc(b1-4)]Man(a1-3)[GlcNAc(b1-4)][GlcNAc(b1-2)Man(a1-6)]Man(b1-4)GlcNAc(b1-4)GlcNAc", "outline": "as §1"}, "[11]": {"molecular_target": "GlcNAc(b1-2)[GlcNAc(b1-4)]Man(a1-3)[GlcNAc(b1-4)][GlcNAc(b1-2)[GlcNAc(b1-6)]Man(a1-6)]Man(b1-4)GlcNAc(b1-4)GlcNAc", "outline": "as §1"}, "[12]": {"molecular_target": "GlcNAc(b1-2)[GlcNAc(b1-4)]Man(a1-3)[GlcNAc(b1-4)][GlcNAc(b1-2)[GlcNAc(b1-6)]Man(a1-6)]Man(b1-4)GlcNAc(b1-4)[Fuc(a1-6)]GlcNAc", "outline": "as §1"}, "[13]": {"molecular_target": "GlcNAc(b1-2)[GlcNAc(b1-6)]Man(a1-6)[GlcNAc(b1-2)Man(a1-3)]Man(b1-4)GlcNAc(b1-4)GlcNAc", "outline": "as §1"}, "[14]": {"molecular_target": "GlcNAc(b1-2)[GlcNAc(b1-6)]Man(a1-6)[GlcNAc(b1-2)Man(a1-3)]Man(b1-4)GlcNAc(b1-4)[Fuc(a1-6)]GlcNAc", "outline": "as §1"}, "[15]": {"molecular_target": "GlcNAc(b1-2)[GlcNAc(b1-6)]Man(a1-6)[GlcNAc(b1-4)][GlcNAc(b1-2)Man(a1-3)]Man(b1-4)GlcNAc(b1-4)GlcNAc", "outline": "as §1"}, "[16]": {"molecular_target": "GlcNAc(b1-3)Fuc", "outline": "as §1"}, "[17]": {"molecular_target": "GlcNAc(b1-3)Gal", "outline": "as §1"}, "[18]": {"molecular_target": "GlcNAc(b1-3)Gal(b1-3)GalNAc", "outline": "as §1"}, "[19]": {"molecular_target": "GlcNAc(b1-3)Gal(b1-4)Glc", "outline": "as §1"}}, "note": "The other results are listed elsewhere or left out.", "data": [{"binder": "GSL-I (Griffonia simplicifolia) (protein) FNLPNFWSDVKDNIIFQGDANTTAGTLQLCKTNQYGNPLQYRAGRALYSDPVQLWDNKTGSVASFYTEFTFFLKITGDGPADGLAFFLAPPDSDVKDAGAYLGLFNKSTATQPSKNQVVAVEFDTWKNTDFPEPSYRHIGINVNSIVSVATKRWEDSDIFSGKIATARISYDGSAKILTVVLSYPDGADYILSHSVDLSKNLPNPIRVGISASTGANQFLTVYVLSWRFSSALQSTSVNAAMGPEIIRTVV", "values": [{"measurement": "glycan array binding signal (z-score)", "setting": "[1]", "result": -0.154}, {"measurement": "glycan array binding signal (z-score)", "setting": "[2]", "result": -0.146}, {"measurement": "glycan array binding signal (z-score)", "setting": "[3]", "result": -0.171}, {"measurement": "glycan array binding signal (z-score)", "setting": "[4]", "result": -0.228}, {"measurement": "glycan array binding signal (z-score)", "setting": "[5]", "result": -0.215}, {"measurement": "glycan array binding signal (z-score)", "setting": "[6]", "result": -0.156}, {"measurement": "glycan array binding signal (z-score)", "setting": "[7]", "result": -0.281}, {"measurement": "glycan array binding signal (z-score)", "setting": "[8]", "result": -0.193}, {"measurement": "glycan array binding signal (z-score)", "setting": "[9]", "result": -0.199}, {"measurement": "glycan array binding signal (z-score)", "setting": "[10]", "result": -0.236}, {"measurement": "glycan array binding signal (z-score)", "setting": "[11]", "result": -0.256}, {"measurement": "glycan array binding signal (z-score)", "setting": "[12]", "result": -0.225}, {"measurement": "glycan array binding signal (z-score)", "setting": "[13]", "result": -0.121}, {"measurement": "glycan array binding signal (z-score)", "setting": "[14]", "result": -0.27}, {"measurement": "glycan array binding signal (z-score)", "setting": "[15]", "result": -0.289}, {"measurement": "glycan array binding signal (z-score)", "setting": "[16]", "result": -0.172}, {"measurement": "glycan array binding signal (z-score)", "setting": "[17]", "result": -0.192}, {"measurement": "glycan array binding signal (z-score)", "setting": "[18]", "result": -0.209}, {"measurement": "glycan array binding signal (z-score)", "setting": "[19]", "result": -0.196}]}]}
